# At least one read-out could not be matched to a standard name with certainty.
# How the values were obtained:
# immature male rats = experiment: Systemic antiandrogenic activity in orchidectomized immature male rats with DHT implant (ventral prostate and seminal vesicle weight); type: in vivo, rat; settings: 0.5 mg/animal orally once daily for 7 days, relative to % inhibition of flutamide; for SV % efficacy versus flu per os DHT: rat seminal vesicle weight; for Prostate % efficacy versus flu per os DHT: rat ventral prostate weight
# [1] = test system: ear sebaceous glands in the male hamster; experiment: Topical antiandrogenic activity, ear sebaceous glands model in the male hamster; type: in vivo, Golden Syrian hamster; settings: dose 10 μg daily for 14 days, topical on left pinna; area of sebaceous glands of left ear
# Description: • Column 2 represent the daily dose for 14 days of tested compound dissolved in ten μl solution of acetone:ethanol:propylene Glycol (1:1:2; v:v:v) applied onto a region between the two cartilage ridges of the ventral surface of left pinna. • Column 3 represents the percentage of inhibition of the area of the sebaceous glands of the left ear of the treated animals versus the area of the sebaceous glands of the left ear of the control animals.
# C—In vivo Assessment of Topical Antiandrogenic Activity
# The antiandrogenic activity of compounds for topical use was determined using the ear sebaceous glands model in the male hamster.
# Male Golden Syrian Hamsters (SYR) of 110-120 g were obtained from Harlan Sprague-Dawley (Madison, USA) and housed up to 2 per plastic cage in a temperature (22±3° C.) and light (12 h light/day, lights on at 7h15)-controlled environment. […]
# The total area of the sebaceous glands (μm^2) in each examined field was calculated by the Image Analyser. We also measured the total area, which has the length of 0.953 mm and the height between stratum granulosum and the cartilage. […] Thus, for each ear, two sections were cut and two fields from each section were analyzed. The total of the four readings was averaged and the mean standard error of the mean was calculated by the image analyzer. […]
Structure (SMILES),SV % efficacy versus flu per os DHT (immature male rats) [%],Prostate % efficacy versus flu per os DHT (immature male rats) [%],Ear Area Inhibition. Vs Control (%) [1] [%]
Cc1cc(-c2ccc(C#N)c(C(F)(F)F)c2)ccc1C#N [EM-4069],0,0,
COc1cc(F)ccc1-c1ccc(C#N)c(C(F)(F)F)c1 [EM-4068],0,0,
N#Cc1ccc(-c2ccc(C#N)c(Cl)c2)cc1 [EM-4281],100,137,
N#Cc1ccc(-c2ccccc2C(F)(F)F)cc1C(F)(F)F [EM-4034],0,0,
N#Cc1ccc(-c2cc([N+](=O)[O-])c(F)cc2F)cc1C(F)(F)F [EM-4867],0,0,
N#Cc1ccc(-c2ccccc2)cc1C(F)(F)F [EM-4118],10,0,
N#Cc1cccc(-c2ccc(C#N)c(C(F)(F)F)c2)c1 [EM-3729],0,4,
Cc1cc(F)cc([N+](=O)[O-])c1-c1ccc(C#N)c(C(F)(F)F)c1 [EM-4947],3,0,
CN(C)c1ccc(-c2ccc(C#N)c(C(F)(F)F)c2)cc1 [EM-3814],0,41,
CCN(CC)C(=O)c1ccc(-c2ccc(C#N)c(C(F)(F)F)c2)cc1 [EM-3987],0,0,
N#Cc1ccc(-c2ccc(F)c(Cl)c2)cc1C(F)(F)F [EM-4216],68,0,
CCOc1ccc(-c2ccc(C#N)c(C(F)(F)F)c2)c(C(N)=O)c1 [EM-4925],0,0,
"N#Cc1ccc(-c2c(F)cccc2F)cc1Cl [EM-4977, 3-chloro-2′,6′-difluoro-biphenyl-4-carbonitrile]",,,62.9
CN(C)C(=O)c1cc(F)ccc1-c1ccc(C#N)c(C(F)(F)F)c1 [EM-4865],100,189,
COc1ccc(-c2ccc(C#N)c(C(F)(F)F)c2)cc1Br [EM-4080],0,4,
CS(=O)(=O)Nc1ccc(-c2ccc(C#N)c(C(F)(F)F)c2)cc1 [EM-4244],19,53,
COc1ccc(-c2ccc(C#N)c(C(F)(F)F)c2)cc1 [EM-3394],0,0,
